# Measurements reported in the supplement of paper PMC8728848.
# The list shows a part of the results.
# B1: X56-1 (Clostridium perfringens), P26831 (protein)
# chain: MGSSHHHHHHSSGLVPRGSHMASDPNRIIATYISNRQDAPTGNPDNIFDNNASTELVYKNPNRIDVGTYVGVKYSNPITLNNVEFLMGANSNPNDTMQKAKIQYTVDGREWIDLEEGVEYTMPGAIKVENLDLKVRGVRLIATEARENTWLGVRDINVNKKEDSNSGVEF
# Legend:
# Test in all cases: glycan array binding signal (z-score within array); higher = stronger binding
# Details in all cases: glycan notation: IUPAC condensed, linker removed
# Fuc(b1-3)GlcNAc = biological target: Fuc(b1-3)GlcNAc
# Method in brief: (§1)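 The binding signal is a Z-score computed within each array. Data were drawn from 3228 arrays in the Consortium for Functional Glycomics database, restricted to those with a known protein sequence. Scores were averaged over arrays of the same protein sequence at different concentrations or buffers, and over linkers, and negative values can be taken as non-binding.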
# Gal(a1-2)Gal = biological target: Gal(a1-2)Gal
# Method in brief: as §1
# Gal(a1-3)Gal = biological target: Gal(a1-3)Gal
# Method in brief: as §1
# Gal(a1-3)Gal(b1-3)Glc = biological target: Gal(a1-3)Gal(b1-3)Glc
# Method in brief: as §1
# Gal(a1-3)Gal(b1-3)GlcNAc = biological target: Gal(a1-3)Gal(b1-3)GlcNAc
# Method in brief: as §1
# Gal(a1-3)Gal(b1-4)GlcNAc = biological target: Gal(a1-3)Gal(b1-4)GlcNAc
# Method in brief: as §1
# [1] = biological target: Gal(a1-3)Gal(b1-4)[Fuc(a1-3)]GalNAc
# Method in brief: as §1
# Gal(a1-3)GlcNAc = biological target: Gal(a1-3)GlcNAc
# Method in brief: as §1
# [2] = biological target: Gal(a1-3)[Gal(a1-4)]Gal(b1-4)GlcNAc
# Method in brief: as §1
# Gal(a1-4)Gal(b1-4)Gal = biological target: Gal(a1-4)Gal(b1-4)Gal
# Method in brief: as §1
# Gal(a1-4)Gal(b1-4)GalNAc = biological target: Gal(a1-4)Gal(b1-4)GalNAc
# Method in brief: as §1
# Gal(a1-4)GlcNAc = biological target: Gal(a1-4)GlcNAc
# Method in brief: as §1
# Gal(a1-6)Glc = biological target: Gal(a1-6)Glc
# Method in brief: as §1
# Gal(b1-2)Gal = biological target: Gal(b1-2)Gal
# Method in brief: as §1
# Gal(b1-3)Gal = biological target: Gal(b1-3)Gal
# Method in brief: as §1
# Gal(b1-3)GalNAc = biological target: Gal(b1-3)GalNAc
# Method in brief: as §1
# [3] = biological target: Gal(b1-3)GalNAc(b1-3)Gal(a1-4)Gal(b1-4)Glc
# Method in brief: as §1
# [4] = biological target: Gal(b1-3)GalNAc(b1-3)Gal(b1-4)Glc
# Method in brief: as §1
# [5] = biological target: Gal(b1-3)GalNAc(b1-3)Gal(b1-4)GlcNAc
# Method in brief: as §1
# [6] = biological target: Gal(b1-3)GalNAc(b1-4)Gal(b1-4)Glc
# Method in brief: as §1
# [7] = biological target: Gal(b1-3)GalNAc(b1-4)[Neu5Ac(a2-3)]Gal(b1-4)Glc
# Method in brief: as §1
# [8] = biological target: Gal(b1-3)GlcNAc(b1-3)Gal(b1-3)GlcNAc
# Method in brief: as §1
# [9] = biological target: Gal(b1-3)[Fuc(a1-4)]GlcNAc
# Method in brief: as §1
# [10] = biological target: Gal(b1-3)[Fuc(a1-4)]GlcNAc(b1-3)Gal(b1-3)[Fuc(a1-4)]GlcNAc
# Method in brief: as §1
# [11] = biological target: Gal(b1-3)[Fuc(a1-4)]GlcNAc(b1-3)Gal(b1-4)GlcNAc
# Method in brief: as §1
# [12] = biological target: Gal(b1-3)[Fuc(a1-4)]GlcNAc(b1-3)Gal(b1-4)[Fuc(a1-3)]GlcNAc
# Method in brief: as §1
# [13] = biological target: Gal(b1-3)[GlcNAc(b1-6)]GalNAc
# Method in brief: as §1
# [14] = biological target: Gal(b1-3)[GlcNAc(b1-6)]GlcNAc
# Method in brief: as §1
# [15] = biological target: Gal(b1-3)[Neu5Ac(a2-6)]GalNAc
# Method in brief: as §1
# [16] = biological target: Gal(b1-3)[Neu5Ac(a2-6)]GlcNAc
# Method in brief: as §1
# [17] = biological target: Gal(b1-3)[Neu5Ac(a2-6)]GlcNAc(a1-4)Gal(b1-4)Glc
# Method in brief: as §1
# [18] = biological target: Gal(b1-3)[Neu5Ac(b2-6)]GlcNAc
# Method in brief: as §1
# [19] = biological target: Gal(b1-4)GalNAc(a1-3)[Fuc(a1-2)]Gal(b1-4)GlcNAc
# Method in brief: as §1
# [20] = biological target: Gal(b1-4)GalNAc(b1-3)[Fuc(a1-2)]Gal(b1-4)GlcNAc
# Method in brief: as §1
# Gal(b1-4)Glc = biological target: Gal(b1-4)Glc
# Method in brief: as §1
# Gal(b1-4)Glc6S = biological target: Gal(b1-4)Glc6S
# Method in brief: as §1
# Gal(b1-4)GlcNAc = biological target: Gal(b1-4)GlcNAc
# Method in brief: as §1
# [21] = biological target: Gal(b1-4)GlcNAc(b1-2)Man(a1-3)[Gal(b1-4)GlcNAc(b1-2)Man(a1-6)]Man(b1-4)GlcNAc(b1-4)GlcNAc
# Method in brief: as §1
# [22] = biological target: Gal(b1-4)GlcNAc(b1-3)Gal(b1-3)GlcNAc
# Method in brief: as §1
# [23] = biological target: Gal(b1-4)GlcNAc(b1-3)Gal(b1-4)Glc
# Method in brief: as §1
# [24] = biological target: Gal(b1-4)GlcNAc(b1-3)Gal(b1-4)GlcNAc
# Method in brief: as §1
# [25] = biological target: Gal(b1-4)GlcNAc(b1-3)Gal(b1-4)GlcNAc(b1-3)Gal(b1-4)GlcNAc
# Method in brief: as §1
# [26] = biological target: Gal(b1-4)GlcNAc(b1-3)Gal(b1-4)[Fuc(a1-3)]GlcNAc(b1-3)Gal(b1-4)[Fuc(a1-3)]GlcNAc
# Method in brief: as §1
# [27] = biological target: Gal(b1-4)GlcNAc(b1-3)GalNAc
# Method in brief: as §1
# [28] = biological target: Gal(b1-4)GlcNAc(b1-3)[Gal(b1-4)GlcNAc(b1-6)]GalNAc
# Method in brief: as §1
binder,measurement,setting,value
B1,glycan array binding signal (z-score),Fuc(b1-3)GlcNAc,-0.409
same,glycan array binding signal (z-score),Gal(a1-2)Gal,-0.012
same,glycan array binding signal (z-score),Gal(a1-3)Gal,-0.154
same,glycan array binding signal (z-score),Gal(a1-3)Gal(b1-3)Glc,0.171
same,glycan array binding signal (z-score),Gal(a1-3)Gal(b1-3)GlcNAc,-0.153
same,glycan array binding signal (z-score),Gal(a1-3)Gal(b1-4)GlcNAc,-0.406
same,glycan array binding signal (z-score),[1],0.446
same,glycan array binding signal (z-score),Gal(a1-3)GlcNAc,-0.041
same,glycan array binding signal (z-score),[2],-0.225
same,glycan array binding signal (z-score),Gal(a1-4)Gal(b1-4)Gal,-0.325
same,glycan array binding signal (z-score),Gal(a1-4)Gal(b1-4)GalNAc,-0.104
same,glycan array binding signal (z-score),Gal(a1-4)GlcNAc,-0.355
same,glycan array binding signal (z-score),Gal(a1-6)Glc,-0.27
same,glycan array binding signal (z-score),Gal(b1-2)Gal,-0.101
same,glycan array binding signal (z-score),Gal(b1-3)Gal,0.071
same,glycan array binding signal (z-score),Gal(b1-3)GalNAc,-0.081
same,glycan array binding signal (z-score),[3],-0.193
same,glycan array binding signal (z-score),[4],-0.269
same,glycan array binding signal (z-score),[5],0.197
same,glycan array binding signal (z-score),[6],0.081
same,glycan array binding signal (z-score),[7],-0.303
same,glycan array binding signal (z-score),[8],-0.321
same,glycan array binding signal (z-score),[9],-0.09
same,glycan array binding signal (z-score),[10],0.121
same,glycan array binding signal (z-score),[11],-0.07
same,glycan array binding signal (z-score),[12],-0.031
same,glycan array binding signal (z-score),[13],-0.248
same,glycan array binding signal (z-score),[14],-0.454
same,glycan array binding signal (z-score),[15],0.454
same,glycan array binding signal (z-score),[16],-0.501
same,glycan array binding signal (z-score),[17],-0.164
same,glycan array binding signal (z-score),[18],-0.203
same,glycan array binding signal (z-score),[19],-0.007
same,glycan array binding signal (z-score),[20],-0.266
same,glycan array binding signal (z-score),Gal(b1-4)Glc,-0.173
same,glycan array binding signal (z-score),Gal(b1-4)Glc6S,-0.36
same,glycan array binding signal (z-score),Gal(b1-4)GlcNAc,-0.326
same,glycan array binding signal (z-score),[21],5.94
same,glycan array binding signal (z-score),[22],-0.369
same,glycan array binding signal (z-score),[23],-0.316
same,glycan array binding signal (z-score),[24],-0.257
same,glycan array binding signal (z-score),[25],-0.206
same,glycan array binding signal (z-score),[26],-0.211
same,glycan array binding signal (z-score),[27],-0.134
same,glycan array binding signal (z-score),[28],-0.016
